To fix the notation:
T1: Arabidopsis response regulator 22 (ARR22), yeast two-hybrid fusion (Arabidopsis thaliana) (UniProt Q9M8Y4)
T1 sequence: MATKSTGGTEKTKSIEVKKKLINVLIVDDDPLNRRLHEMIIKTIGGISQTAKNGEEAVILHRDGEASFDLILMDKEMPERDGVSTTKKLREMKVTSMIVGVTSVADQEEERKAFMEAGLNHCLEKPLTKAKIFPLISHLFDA

The chains behind the UniProt entries cited, without tags or fusion partners. Residues count along the entry.
UniProt Q9C5U2, residues 562-873: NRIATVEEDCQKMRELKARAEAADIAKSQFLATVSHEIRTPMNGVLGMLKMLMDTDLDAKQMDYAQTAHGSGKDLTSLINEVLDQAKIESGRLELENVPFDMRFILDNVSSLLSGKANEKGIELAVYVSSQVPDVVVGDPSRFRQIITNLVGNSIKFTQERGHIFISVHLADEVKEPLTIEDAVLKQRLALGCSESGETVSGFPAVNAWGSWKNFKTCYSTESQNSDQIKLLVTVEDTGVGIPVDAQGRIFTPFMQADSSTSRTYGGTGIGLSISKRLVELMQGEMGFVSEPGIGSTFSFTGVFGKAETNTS
UniProt Q9C5U1, residues 425-728: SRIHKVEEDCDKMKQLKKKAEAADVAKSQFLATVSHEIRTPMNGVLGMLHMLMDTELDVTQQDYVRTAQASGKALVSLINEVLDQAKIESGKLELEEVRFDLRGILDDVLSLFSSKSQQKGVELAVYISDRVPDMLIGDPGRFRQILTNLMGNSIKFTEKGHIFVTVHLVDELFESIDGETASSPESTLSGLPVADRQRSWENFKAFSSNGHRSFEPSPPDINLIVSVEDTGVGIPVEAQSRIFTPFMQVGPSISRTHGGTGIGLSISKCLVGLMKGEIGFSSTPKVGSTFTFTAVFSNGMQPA

B1: histidine-containing phosphotransfer protein AHP4, AD fusion (protein, UniProt Q9LU15 1-127)
chain: MTNIGKCMQGYLDEQFMELEELQDDANPNFVEEVSALYFKDSARLINNIDQALERGSFDFNRLDSYMHQFKGSSTSIGASKVKAECTTFREYCRAGNAEGCLRTFQQLKKEHSTLRKKLEHYFQASQ
B2: histidine kinase (HK) domain of the ethylene receptor ERS1, AD fusion (domain or fragment, UniProt Q38846 317-613)
chain: MHARDQLMEQNFALDKARQEAEMAVHARNDFLAVMNHEMRTPMHAIISLSSLLLETELSPEQRVMIETILKSSNLVATLISDVLDLSRLEDGSLLLENEPFSLQAIFEEVISLIKPIASVKKLSTNLILSADLPTYAIGDEKRLMQTILNIMGNAVKFTKEGYISIIASIMKPESLQELPSPEFFPVLSDSHFYLCVQVKDTGCGIHTQDIPLLFTKFVQPRTGTQRNHSGGGLGLALCKRFVGLMGGYMWIESEGLEKGCTASFIIRLGICNGPSSSSGSMALHLAAKSQTRPWNW
B3: Arabidopsis response regulator 22 (ARR22), yeast two-hybrid fusion (protein, UniProt Q9M8Y4 1-142)
chain: MATKSTGGTEKTKSIEVKKKLINVLIVDDDPLNRRLHEMIIKTIGGISQTAKNGEEAVILHRDGEASFDLILMDKEMPERDGVSTTKKLREMKVTSMIVGVTSVADQEEERKAFMEAGLNHCLEKPLTKAKIFPLISHLFDA
B4: histidine-containing phosphotransfer protein AHP5, AD fusion (protein, UniProt Q8L9T7 1-157)
chain: MNTIVVAQLQRQFQDYIVSLYQQGFLDNQFSELRKLQDEGTPDFVAEVVSLFFDDCSKLINTMSISLERPDNVDFKQVDSGVHQLKGSSSSVGARRVKNVCISFKECCDVQNREGCLRCLQQVDYEYKMLKTKLQDLFNLEKQILQAGGTIPQVDIN
B5: histidine-containing phosphotransfer protein AHP1, AD fusion (protein, UniProt Q9ZNV9 1-154)
chain: MDLVQKQKSLQDYTKSLFLEGILDSQFLQLQQLQDESNPDFVSQVVTLFFQDSDRILNDLSLSLDQQVVDFKKVDPHVHQLKGSSSSIGAQRVKNACVVFRSFCEQQNVEACHRCLQQVKQEYYLVKNRLETLFKLEQQIVASGGMIPAVELGF
B6: histidine-containing phosphotransfer protein AHP3, AD fusion (protein, UniProt Q9SAZ5 1-155)
chain: MDTLIAQLQRRFCDFTISLYHQGFLDDQFTELKKLQDECSPDFVAEVVTLFFEDCEKLISNMARALDQTGNVDFKLVGSSVHQLKGSSSSVGAKRVKGLCVTLKECCDSQNYEGCVRCLQQVDIEYKTLKAKLQDLFNLEQQIVQAGGRIPQVDI
B7: histidine-containing phosphotransfer protein AHP2, AD fusion (protein, UniProt Q9ZNV8 1-156)
chain: MDALIAQLQRQFRDYTISLYQQGFLDDQFTELKKLQDDGSPDFVSEVLSLFFEDCVKLISNMARALDTTGTVDFSQVGASVHQLKGSSSSVGAKRVKTLCVSFKECCEAKNYEGCVRCLQQVDIEYKALKTKLQDMFNLEKQIIQAGGIVPQVDIN
B8: pseudophosphotransfer protein AHP6, AD fusion (protein, UniProt Q9SSC9 1-154)
chain: MLGLGVDRLQADINRLLASLFHQGVLDEQFLQLQQLQDETSPNFVYDVINIYFDESEKLLRNLRLLLMDREFSDYKKIGLHLNQLVGSSSSIGARRVRNVCVAFRSASELSNRPGCLRGLEVVEHEYHYLKNMMHELFQLEQQRILAAGVRYPM

Results are given in words; binding and its absence hold for the method and conditions named. Some results given as binding are weak or reduced against the parent protein; the word gives no strength. Sequences can lack the tags named with a protein.

This assay deals with T1, Arabidopsis response regulator 22 (ARR22), yeast two-hybrid fusion (Arabidopsis thaliana). The assay can be described thus: two-hybrid; Matchmaker system, yeast strain PJ69-4A; BD-ARR22 bait (pGBKT7-DEST), AD preys (pGADT7-DEST); growth on interaction selective medium (CSM-L-, W-, Ade-) at 28 C and LacZ (beta-galactosidase) activity in extracts of 3 independent clones.
For the molecule “histidine kinase (HK) domain of the cytokinin receptor AHK2, AD fusion (from UniProt Q9C5U2 562-873) (domain or fragment)”, the binding result is listed as “no binding”.

With “histidine kinase (HK) domain of the cytokinin receptor AHK3, AD fusion (from UniProt Q9C5U1 425-728) (domain or fragment)”, the binding entry is recorded as “no binding”.

Regarding B1, the binding entry was “no binding”.

As for B2, the binding entry was “no binding”.

Regarding B3, the binding entry is recorded as “no binding”.

As for B4, the binding result is “binds”.

On to B5, for which the binding entry is on record as “no binding”.

Regarding B6, the binding result is “binds”.

In the case of B7, the binding result is recorded as “binds”.

For B8, the binding result was “no binding”.

These data come from PMC2478664.
